The other results are listed elsewhere or left out. The full chains were built here from the parent and the listed change. Values near 0.05 are background.
B1: TEV protease; numbered along this chain (parent)
chain: MGESLFKGPRDYNPISSSICHLTNESDGHTTSLYGIGFGPFIITNKHLFRRNNGTLVVQSLHGVFKVKDTTTLQQHLVDGRDMIIIRMPKDFPPFPQKLKFREPQREERICLVTTNFQTKSMSSMVSDTSCTFPSGDGIFWKHWIQTKDGQCGSPLVSTRDGFIVGIHSASNFTNTNNYFTSVPKNFMELLTNQEAQQWVSGWRLNADSVLWGGHKVFMVKPEEPFQPVKEATQL

Variants of: B1
Assay: raw area under fraction-flipped curve 0-4 h after induction (AUC4h, not background-subtracted), DNA-recorder readout of cleavage of the substrate (dimensionless); higher = more cleavage of the substrate by the protease variant
Settings: temperature: 34 °C; time window: 0-4 h after rhamnose induction
Protocol: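 In vivo DNA recorder in E. coli TOP10(DE3) ΔrhaA at 34 °C. Each TEVp single-site mutant (parent TEVp 0) is paired with a single-site variant of the 7-mer TEVs (canonical ENLYFQ|S). The substrate sits between flexible linkers in a Bxb1-sfGFP-TEVs-SsrA fusion, so cleavage stabilises Bxb1 and speeds flipping of a recombination array, read by NGS. The value is the raw area under the fraction-flipped curve over 0-4 h after rhamnose induction (AUC4h), with ≥20 reads per time point. It is not background-subtracted; inactive controls average about 0.047.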
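Further: Bxb1 expression induced with 0.2% (w/v) L-rhamnose at OD600 near 0.5, cultures sampled hourly, flipped fraction per protease–substrate barcode pair counted by paired-end Illumina sequencing.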

Variant	area with substrate ECLYFQS	area with substrate EDLYFQS	area with substrate EFLYFQS	area with substrate EGLYFQS	area with substrate EILYFQS	area with substrate ELLYFQS	area with substrate EPLYFQS	area with substrate EQLYFQS	area with substrate ERLYFQS	area with substrate ESLYFQS	area with substrate EVLYFQS	area with substrate EWLYFQS	area with substrate EYLYFQS	area with substrate EELYFQS	area with substrate EHLYFQS	area with substrate EKLYFQS	area with substrate ETLYFQS	area with substrate EMLYFQS
H143L	0.0602	0.0644	0.086	0.0627	0.0363	0.0626	0.0567	0.046	0.0755	0.0668	0.0686	0.0526	0.0644					
H143K	0.0583	0.0683				0.054		0.0658	0.058	0.0487	0.0715	0.0602		0.0712	0.0708	0.0496	0.0375	
H143W	0.0544	0.079			0.0527	0.0577	0.065			0.0672	0.0528	0.0598		0.064	0.0507	0.0532		0.0527
M122W	0.126			0.0806	0.102		0.144	0.112	0.115	0.103	0.052	0.108			0.0817		0.0808	0.115
M122H	0.089	0.102			0.0915	0.084			0.0195	0.0898					0.112	0.0977		
M122L	0.106				0.0912		0.139	0.121		0.0945	0.0855	0.098	0.144	0.136	0.0982			0.0892
L190W	0.0836		0.0881		0.0625		0.117	0.109	0.0611	0.0674	0.0703		0.0778		0.0728			0.0467
L190G	0.0421		0.0793	0.0793	0.0697			0.0862	0.0704	0.0782	0.0526	0.0692		0.0868				
Q151I	0.0917			0.0833	0.0727		0.09	0.0877		0.095	0.0675	0.0922	0.0871	0.109	0.0951	0.0947	0.106	0.102
Q151P	0.0605	0.0584		0.116	0.0611			0.0363	0.0575	0.0753	0.0487	0.0511						0.0557
Q151L	0.0664			0.0779	0.0819			0.105	0.0793		0.0859			0.0984	0.121			
W141G	0.0622	0.0581		0.0495	0.056		0.0507	0.0441	0.055	0.0513	0.0629	0.0686		0.0777	0.0584			
C131S	0.109				0.126						0.094			0.152				
M188Y	0.107	0.109	0.0867	0.0925	0.078	0.106		0.119	0.0911	0.114	0.0823	0.0941			0.122	0.108	0.105	0.124
R204Q	0.122	0.138	0.0929	0.103	0.103	0.145	0.144	0.123		0.122			0.152	0.166	0.134	0.114	0.134	0.0982
K221D	0.0901		0.101	0.0589	0.0814			0.103	0.0739	0.0919	0.0667					0.0965		0.0846
K120Q	0.0987			0.076	0.111	0.0656				0.0961	0.0636	0.0994	0		0.115			0.112
N175P	0.076	0.0759		0.073	0.0938	0.0599		0.0642		0.074		0.0488		0.062				0.0662
N175Y	0.074	0.101	0.062		0.0624	0.0726	0.0999	0.0828	0.0692	0.0625	0.0678	0.0704		0.0656			0.073	0.064
N175D	0.0786		0.0847		0.0577	0.0564	0.0823	0.0647	0.0705	0.0701	0.0737	0.067	0.0662	0.0665		0.0683		0.0714
S154G	0.0752	0.0806	0.0916	0.0588	0.063	0.0866		0.093	0.094	0.096			0.073	0.0926	0.0851	0.0838	0.0855	
S154P	0.0544						0.045				0.0739				0.0623			0.0643
G213D	0.0642		0.0838		0.0756		0.075	0.0807	0.0781	0.0561	0.057	0.0736	0.0744		0.0606	0.0786		0.069
V183E	0.0605			0.0467	0.0615	0.0306		0.0642	0.0521	0.0481		0.0445				0.0508		
V183F	0.0959	0.106		0.0822	0.0985	0.0914	0.115	0.136	0.101	0.111	0.0713	0.0984	0.0929	0.127	0.116	0.101		0.116
V183Y	0.0828			0.0574	0.0499		0.0813	0.0828	0.107	0.0719	0.0822					0.076	0.0905	0.0763
K98E	0.112		0.135	0.0886	0.105	0.0935	0.133	0.0965	0.132	0.0878	0.137	0.0972		0.153	0.11			0.119
F173L	0.135	0.211		0.0952	0.14	0.0874	0.116		0.131	0.144	0.112		0.101	0.1	0.141			0.135
S121L	0.0905	0.12	0.137	0.0901	0.0999	0.0866	0.124	0.0949	0.102	0.11	0.097					0.11	0.101	0.116
G202L	0.0596			0.0702	0.0676	0.0581			0.0643	0.0638	0.0612		0.0668	0.0728		0.0572		0.0659

From the supplement of paper PMC12217912
